Whole data set: some 33,000 sequences, median “E-score (-0.5 to 0.5)” near -0.043, cut for the highest 2% near 0.37. Some of the results follow.
Each sequence was assayed against T1, Upc2 (UniProt Q12151) (assay: PBM E-score (8-mer binding enrichment) (E-score (-0.5 to 0.5)); higher = stronger / more preferred TF binding; most listed sequences are background and not binding sites). Conditions: protein concentration: 200 nM; construct: GST-full length.
T1 sequence: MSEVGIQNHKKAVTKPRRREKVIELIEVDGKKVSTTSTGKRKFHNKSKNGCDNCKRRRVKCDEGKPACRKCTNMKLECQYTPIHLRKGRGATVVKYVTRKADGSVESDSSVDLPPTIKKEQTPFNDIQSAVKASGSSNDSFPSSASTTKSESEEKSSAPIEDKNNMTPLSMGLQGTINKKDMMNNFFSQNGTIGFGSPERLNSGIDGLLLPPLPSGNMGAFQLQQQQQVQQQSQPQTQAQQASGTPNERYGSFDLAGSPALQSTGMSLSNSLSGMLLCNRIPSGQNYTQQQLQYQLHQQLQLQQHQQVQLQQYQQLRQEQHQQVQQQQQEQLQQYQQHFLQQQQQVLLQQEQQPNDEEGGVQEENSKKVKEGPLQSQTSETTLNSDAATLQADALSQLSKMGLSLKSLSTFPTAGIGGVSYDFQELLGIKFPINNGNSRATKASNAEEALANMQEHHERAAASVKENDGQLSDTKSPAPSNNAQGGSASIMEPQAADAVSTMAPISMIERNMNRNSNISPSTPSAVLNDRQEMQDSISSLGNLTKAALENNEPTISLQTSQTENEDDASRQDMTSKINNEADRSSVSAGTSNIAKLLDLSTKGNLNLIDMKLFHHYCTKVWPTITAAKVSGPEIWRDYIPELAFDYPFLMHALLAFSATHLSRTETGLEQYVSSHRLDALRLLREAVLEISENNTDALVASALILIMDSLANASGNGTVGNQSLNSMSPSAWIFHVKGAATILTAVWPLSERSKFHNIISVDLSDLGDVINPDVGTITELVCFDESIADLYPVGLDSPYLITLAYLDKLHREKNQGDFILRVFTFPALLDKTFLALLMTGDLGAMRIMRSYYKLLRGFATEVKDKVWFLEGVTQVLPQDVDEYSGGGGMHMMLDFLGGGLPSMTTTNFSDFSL
How it was run: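 Detection of bound protein used fluorescent anti-GST, with scans normalised by masliner. The proteins were GST-tagged yeast transcription factors applied at about 100-200 nM to universal all-10-mer Agilent arrays made double-stranded by primer extension. Each ungapped eight-base word, pooled with its reverse complement, was scored with an E-score from the Universal PBM Analysis Suite.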

Sequence	PBM E-score
CAAGGTCG	-0.186
AAGAGTCT	-0.0506
CGAGTTAA	0.171
CACTGAAG	-0.209
CGGGCCTC	-0.0711
AATTGGTA	0.0555
CCATTAGC	0.00735
CGATTCAG	0.0397
GCTGTCTA	-0.0899
TACCACAA	0.0329
AGCAGGCA	-0.246
AGTCGATC	-0.0192
TCCTAACA	0.02
AAAACACC	-0.187
ACGACAAA	0.367
CTTCAGCC	-0.234
ACGTAGCG	0.224
ATGGAGTG	-0.272
ACTATCAT	0.0324
AAGTGAAG	-0.122
AAACGGCT	0.296
CGTGCCTA	-0.229
CTCAGGCC	-0.202
ATCCCCCC	-0.331
ACCGCAAC	0.086

Sequence	PBM E-score
CGTATATC	0.454
CGCCAGGC	-0.0622
CTTTTCCA	-0.318
AGTACTCG	0.242
ACTCCGCT	-0.102
AGGTTAGA	-0.168
AGTTCACA	-0.004
TCAATCAA	0.0923
CCTTGAAG	-0.25
ACCCCATA	-0.106
AGAAGGAT	-0.265
GCGTTATA	0.0655
GACTCCCA	-0.132
TACGTGCA	0.208
CACATCAA	0.0633
GGGTCGTA	0.42
GACACGAA	0.0225
GAATCAAC	0.214
AGCTCTAG	-0.0435
CATGGGTC	-0.331
GCATGCAC	-0.0917
CCGAATCA	0.0182
GCCATTAA	-0.127
TAGGGGAA	-0.11
ACAGTCCC	-0.242

Sequence	PBM E-score
GCTCTCCC	-0.0252
AAAATATT	0.00506
AGTGGACC	-0.372
AATGGGGC	-0.24
ATGTCCGA	0.104
CGATTTAA	0.0422
CATTAAAC	0.206
CTGTAACC	0.0416
CAGGGATG	-0.184
CATAAATC	-0.0503
GATTTGGA	-0.112
GAGTAACA	0.0415
ATTATGCA	-0.0455
AAAGCATG	-0.169
CCGGGAAA	0.0622
GGGAGGGA	0.00443
ACGGAAGC	0.142
CACCCTGC	-0.264
GCATTCCC	-0.103
TACCTCAA	0.0137
AAGGGTCA	-0.287
ATCTTCTA	0.0247
ACATACCC	-0.00987
GCAAAGGA	0.0614
ATCAACTA	0.089

Sequence	PBM E-score
ATATTCCC	-0.105
GAATTGCC	-0.0143
AAAGCAGA	0.00876
GACCAACC	-0.0496
CAAGAGGA	-0.245
CGCCAGCG	-0.221
TTGTGAAA	-0.189
ACATGATC	-0.176
AAGGTTTA	-0.0703
CTGGGCTA	-0.148
CTATTTCA	-0.126
CGCCAGGA	-0.213
AGCGACGG	0.255
ACGAGCAG	0.313
AAATCATA	0.231
AAGCGAAC	0.294
CGCGCTCA	-0.0616
ATACGACC	0.474
CGGGCGAA	-0.166
GGGCGAAC	-0.0536
GTCGGTTA	0.337
ACCGTCGT	0.394
CATCTTCC	-0.125
ACATTGGC	-0.139
CACCGGAC	0.0115

Sequence	PBM E-score
AACCATGA	-0.0289
CAGGTTAC	-0.149
CGGAGAGA	0.0808
CAGGATGG	-0.141
TAGCGATA	0.0495
AGGCGAAA	-0.103
GACGGGAC	-0.0797
GAATCCAA	-0.195
AAGGAAAC	-0.0126
ACCCAGTG	0.00501
ACACACTA	-0.0529
AATGCATT	-0.146
ATCCAACG	-0.165
AAGCCCAA	-0.108
CACAGAGA	-0.0832
CAATCTAG	-0.043
CAACCGGA	0.00499
CGGTAAAA	0.206
GACCTGCC	-0.116
CACTAACG	0.2
CCTTCCTC	-0.157
GCGTGACC	-0.101
GAATATTC	0.0333
ACTCGGGA	-0.0171
CGATCCGC	0.066

Sequence	PBM E-score
AGTATTAC	0.0661
AACGTGGC	0.111
CCTGGCTA	0.00786
CACAAGGC	-0.308
CAGGAGTC	-0.207
CCCTCAGG	-0.133
ATGATGTC	-0.175
ACTGAAAT	-0.0489
AGTTACTG	-0.223
AGAAATGG	-0.159
CACATGTG	0.00975
CATCAACA	-0.00151
AGACTGGA	-0.172
AATGTCCG	0.101
TGAGCTCA	0.043
GAATGTCC	-0.167
AAGGATCA	-0.181
ATGAAGAC	-0.22
AACTTTAA	-0.00093
TAGCTGGA	-0.18
GAAAGCCA	-0.231
CTGTCACA	-0.0745
AAAAATTA	0.0373
ATGCGTGC	0.03
ATGAGTTG	-0.0822

Sequence	PBM E-score
CGTACGCC	0.312
GGGAGCTA	-0.162
ATAAGGCA	-0.107
CTCGTGGA	0.0655
GAGCGTGA	-0.108
CGAAAAGA	0.0982
ATGTAGAA	-0.229
AAATCGCC	-0.149
CAATCAAG	-0.0362
CACAGTTA	-0.105
ACGATACC	0.349
CGTGTCTC	0.0266
AAGCAGAT	-0.211
CGTACACA	0.418
TGCGATAA	0.0773
ATGTCACC	-0.0774
TGCAAACA	-0.0888
ACTAGGCG	-0.0496
CGAATCGA	0.16
CGTTGCTC	0.212
ATCCCGCG	0.0498
GTTGTAGA	0.106
ATGCCCGG	-0.125
AAAATCCT	0.0605
CCTGGATA	-0.0211

Sequence	PBM E-score
CCGCCGCG	0.0882
ATCCTTTG	-0.0839
ACCTTTTA	0.118
GATCGGCC	-0.0313
GTATGCAC	0.103
CACTTTTC	-0.0559
ACATCGCG	0.0364
TAAGTTAA	-0.0413
GATTGTGC	-0.0348
CCTGCCGC	-0.0126
TCGGTAAA	0.288
ACCAGCTC	-0.0873
CGTCAACG	0.169
AGTCTCCG	-0.0419
GCTGCCAC	-0.242
AAGGACAT	0.0482
GAAAAATA	0.0817
ACTGACGA	0.0719
AGATACTC	-0.065
AACACTCA	0.0647
AGGAGCCA	-0.101
TGGTGGAA	-0.00349
ACAGGCCG	-0.129
GAGTACTC	-0.0593
GCAGTGTA	0.115

Sequence	PBM E-score
ACCAAAGT	-0.0883
AACCAGTG	-0.154
CGAAGCAG	0.00955
TTCCTCAA	-0.177
ACAGCTGG	-0.0318
GTAAAAGA	0.256
GAAAGCGC	-0.0722
GAACCTTC	-0.112
AGATTCGC	0.0823
ATACCACG	0.0605
ATGGCGTG	-0.0735
CCTAGACG	0.0559
CTAATTTA	0.154
CACTGCAG	-0.19
CGTGTACA	0.158
CACTTTAA	0.0393
CTGCGGAA	-0.172
AGCGCGAA	0.0369
GATATTCA	-0.0996
AATTAGCT	0.0368
GCCCCCCC	-0.12
CTCTCACC	-0.149
ACAGCCCT	-0.257
CGACATCG	0.142
GTTATCTA	0.0623

Sequence	PBM E-score
GACCAGCA	-0.252
AACACCGT	0.141
TCCTTGAA	-0.0441
AGGGTTCG	0.0266
TATTGACA	-0.0311
ACGGATAT	0.219
CCAGGTCC	-0.0943
CGATAGCG	0.0616
CCAGCGGA	-0.0985
ACTAAATA	0.0972
ACGCATGC	0.15
CCCTCTTA	0.0709
AAGGCTTG	-0.113
CAACGTAC	0.237
CCAAATAC	0.0506
ACAACACT	0.0862
ACGCCGTA	0.354
GGATGTTA	-0.0267
CTCGGAAA	0.229
CTTGCAGA	-0.17
AGGGGTAT	-0.216
CTATAATA	-0.055
CAAGCATA	-0.091
GTCGCGGA	-0.0193
AACATAGC	-0.212

Sequence	PBM E-score
GCATAGGC	-0.139
CACATCCA	0.00264
GCTTCGGA	0.102
GATTATGA	-0.0808
CAAGTTCA	-0.0346
CCGTTCGA	0.13
CGCGGCTC	0.0204
CTGCAGAA	0.00637
CATGGCGG	-0.203
ATACAGAA	0.0139
CCGTGGCG	-0.122
CCTTAAAG	-0.0314
AGCTGGTG	0.0458
CATTTAGG	-0.285
CATAACCC	-0.127
CTTGCAAA	0.0329
GAATTGTA	0.0594
AGAAACAA	-0.0188
CAGATGCA	-0.205
AACCACGA	-0.102
GTTGGGTA	0.0587
GGAGGCTA	-0.176
CCCAAGGC	-0.0648
ATAATCGC	0.069
ACATTAAG	-0.0138

Sequence	PBM E-score
CCCGCCGA	-0.0993
ACCGGTTA	0.118
ACCACGGG	-0.109
AATTTTAC	0.215
GTGTTATA	0.104
CCAAAAAG	-0.218
ATCGCATG	-0.00273
AATGTGGC	0.0351
AAGATACT	-0.0277
ACCCTCAG	-0.26
GCGAGCGA	0.226
CGTATAAG	0.481
ATCTGACG	-0.271
ACGACAGC	0.336
AATAGATT	-0.0588
CGATTAAG	0.257
CACCCTAG	-0.203
ATAATGTG	0.0114
AGTTGCGG	-0.0153
ACGCCCTA	-0.111
AGCCGTGA	-0.0983
ACAGTTAA	0.116
ATCCAGAC	-0.251
GCACCAAA	-0.0527
CTTAGTAC	0.0714

Sequence	PBM E-score
AGAGGTGA	-0.0822
AGTTAATC	-0.0362
AGTCAACG	0.0316
ATGGAACG	0.34
GAAAACAC	-0.031
CCAAGTTC	-0.108
GTGTTCCA	-0.13
CGGCCCTA	-0.218
GCCGCTCA	-0.283
GTAAACTA	0.172
GCACCAGC	-0.118
CAACGAAA	0.221
ACGGGAGG	0.0652
GTTAATCA	0.0984
ATTAGGAC	0.066
TCTTACAA	0.0124
ACCACCCT	-0.0594
CTATGGGC	-0.184
ATCGGCAC	-0.09
CCCCGCGC	-0.0172
GCCCGGGA	-0.146
AACACTTC	0.00636
CGTACCGC	0.416
ACACGGGA	-0.129
AACCGACA	0.232

Sequence	PBM E-score
CAATTTGG	-0.104
GCTTGTCA	0.0148
CTCCCACA	-0.221
CACGTATG	0.236
CGGAATCA	-0.104
GGCCTTCA	-0.161
AAATGGAG	-0.101
CATAACTC	-0.0677
CAGGCAAC	-0.258
AGCCTACC	-0.183
CGTGTCGA	-0.0271
GCAATAAA	0.117
AATATACG	0.465
CGGCTAGA	0.0143
ACCGGACA	-0.141
CAAAGCCC	-0.118
AGGAGTTG	0.0212
ACGTGGAC	-0.0272
AAGCATAT	-0.0288

Source: the supplement of paper PMC3334620
